Experimental data: PMC7288428, “Amaryllidaceae alkaloids with anti-Trypanosoma cruzi activity” (Parasites & Vectors, 2020)
pIC50: −log10 of the molar value. Where two headings read alike, the source gives them in different places.

System: Trypanosoma cruzi Tulahuen strain expressing β-galactosidase
Assay: microbe, parasite or virus in culture
[1] = Trypanosoma cruzi, TULAHUEN, Vero, 96 h

Structure (SMILES) | activity against the parasite (active / inactive) | pIC50 [1] | pIC50 (anti-T. cruzi phenotypic assay, Vero hosts, 4 days, mean (SD)) | pIC50 (anti-T. cruzi phenotypic assay, Vero hosts, 4 days, mean (SD), listed as narciclassine) | activity against the parasite (active / inactive) (phenotypic T. cruzi growth inhibition assay, in words)
CC(=O)O[C@@H]1CC=C2CCN3Cc4cc5c(cc4[C@H]1[C@@H]23)OCO5 [1-O-acetylcaranine] | inactive | 4.45 | – | – | –
O=C(Cn1ccnc1[N+](=O)[O-])NCc1ccccc1 [BNZ, benznidazole, reference compound] | – | 5.81 | – | – | –
O[C@H]1C=C[C@@]23CCN(Cc4cc5c(cc42)OCO5)[C@@H]3C1 [Crinine, crinine] | inactive | 4.24 | – | – | –
COC1C=CC23c4cc5c(cc4CN(CC2O)C3C1)OCO5 (centres unmarked) [Haemanthamine, haemanthamine] | active | 5.80 | – | – | –
CN1CCC2=C[C@H](O)[C@H]3OC(=O)c4cc5c(cc4[C@H]3[C@@H]21)OCO5 [Hippeastrine, hippeastrine] | active | 5.44 | – | – | –
O[C@H]1[C@H]2c3cc4c(cc3CN3CCC(=C[C@@H]1O)[C@H]23)OCO4 [Lycorine, lycorine] | active | 6.15 | – | – | –
CO[C@H]1C=C2[C@H]3C[N@@](Cc4cc5c(cc43)OCO5)[C@H]2C[C@@H]1O [Montanine, montanine] | active | 5.70 | – | – | –
O=C1N[C@@H]2C(=C[C@H](O)[C@@H](O)[C@H]2O)c2cc3c(c(O)c21)OCO3 [Narciclasine, narciclasine] | – | – | 6.31 | 6.31 | active
CN1CC[C@@]23C=C[C@H](O)C[C@@H]2Oc2c(O)ccc(c23)C1 [Sanguinine, sanguinine] | inactive | 3.67 | – | – | –
CO[C@@H]1C=C[C@@]23c4cc5c(cc4CO[C@]2(O)CN(C)[C@H]3C1)OCO5 [Tazettine, tazettine] | inactive | 4.08 | – | – | –
